Measured values taken from PubChem BioAssay AID1159614 (National Center for Advancing Translational Sciences (NCATS), 2016).
Among all 45,000 compounds or so, about 65 (0.1%) were called active. Calls follow the shape of the dose curve; as a rule, active = well fitted activation curve with a large enough effect; inconclusive = small, poorly fitted or top-dose-only effect; inactive = no such curve, though single readings can be large or run the other way. Some of the results follow.

Biological target: Galactocerebrosidase (Homo sapiens) (UniProt P54803)
Experiment: A Novel Cell-Based Assay to Identify Small Molecules for B -Galactocerebrosidase; also: 0% is about no effect; nearly all actives have a fitted effect of over 65% in size
Conditions: 145M-Twi-hGALC-G270D cells (Twitcher mouse brain line with human GALC G270D), HMU-beta-Gal fluorescence, 48 h; series mostly up to 57.5 µM; activation: at the top concentration
In short: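 Brain-derived Twitcher mouse 145M-Twi cells stably expressing human GALC-G270D or wild-type GALC, treated live, then residual GALC activity read by fluorescence of HMU-b-Gal substrate (0.1 mM final) in citrate-phosphate buffer pH 5.2 with sodium taurocholate. Signal increase indicates enhancement.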

Sequence of UniProt P54803 (P54803 whole entry, looked up): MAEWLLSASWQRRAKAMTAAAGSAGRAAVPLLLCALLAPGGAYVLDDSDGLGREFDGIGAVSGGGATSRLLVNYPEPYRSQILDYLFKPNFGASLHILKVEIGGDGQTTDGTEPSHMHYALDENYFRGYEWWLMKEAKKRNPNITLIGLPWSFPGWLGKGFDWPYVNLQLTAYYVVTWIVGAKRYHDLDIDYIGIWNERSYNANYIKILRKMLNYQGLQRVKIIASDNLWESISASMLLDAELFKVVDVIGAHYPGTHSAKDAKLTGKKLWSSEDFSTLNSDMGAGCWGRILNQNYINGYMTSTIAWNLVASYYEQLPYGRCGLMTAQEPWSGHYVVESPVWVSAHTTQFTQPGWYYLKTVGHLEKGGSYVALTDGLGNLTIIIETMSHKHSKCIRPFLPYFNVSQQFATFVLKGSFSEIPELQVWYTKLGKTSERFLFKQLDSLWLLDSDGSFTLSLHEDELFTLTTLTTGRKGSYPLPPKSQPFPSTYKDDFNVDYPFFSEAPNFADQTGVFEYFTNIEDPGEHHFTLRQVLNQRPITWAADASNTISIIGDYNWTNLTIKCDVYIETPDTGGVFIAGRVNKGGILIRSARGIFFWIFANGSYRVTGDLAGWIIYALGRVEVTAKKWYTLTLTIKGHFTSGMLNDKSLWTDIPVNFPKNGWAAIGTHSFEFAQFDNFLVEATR

activation, inactive:
CCOC(=O)c1c(NC(=O)C(C)Oc2ccc(Cl)c(C)c2)sc2c1CCCC2 (stereo not drawn) -10.8%
CC(C)Cn1c(=O)c2ccccc2n2c(CCC(=O)Nc3ccc(F)c(F)c3)nnc12 -8.8%
CCN(C(=O)Cn1nc(Cc2ccncc2)c2ccccc2c1=O)c1cccc(C(F)(F)F)c1 -4.81%
O=C(NCCc1ccccc1)c1ccc2c(c1)CCN2S(=O)(=O)c1ccccc1 -10.1%
Cc1ccc(S(=O)(=O)N2CCC(C(=O)Nc3ccc(Oc4ccccc4)cc3)CC2)cc1 -10.7%
CCN(c1cc(C)cc(C)c1)S(=O)(=O)c1nnc(NC(=O)c2ccco2)s1 -4.16%
COc1ccc(NC(=O)CCN2CCN(CCO)CC2)cc1 5.02%
CCOc1ccc(C(=O)Nc2ccc(-c3nc4ccccc4s3)c(C)c2)cc1OCC -0.738%
O=C(O)CCCCC(=O)O -14.8%
Cc1ccc(NC(=O)Cn2nnc(-c3nc(-c4ccc(Cl)cc4)no3)c2N)cc1C -2.32%
Cc1nc2c(C(=O)NCCc3ccccc3)c[nH]n2c(=O)c1Cc1ccc(F)cc1Cl -15.8%
Cc1cccc(N2CCN(C(=O)c3ccc(NC(=O)c4nsc5ccccc45)cc3)CC2)c1C -23%
COc1ccc2[nH]cc(CCNC(=O)c3cnn(-c4ccccc4Cl)c3C3CCN(C(=O)OC(C)(C)C)CC3)c2c1 -5.76%
Cc1ccccc1CNC(=O)c1ccc(CS(=O)Cc2ccc(Cl)cc2)o1 (stereo not drawn) -3.26%
COc1ccc(-n2c(=O)c3sc4ccccc4c3n(CC(=O)NCc3ccccc3)c2=O)cc1 -6.67%
CCCn1c(CCC(=O)Nc2cccc(CC)c2)nc2cccnc21 -8.29%
NC(=S)N/N=C/c1cccnc1 -11.5%
Cc1ccc2nc(N(Cc3cccnc3)C(=O)c3cccs3)sc2c1 -12.7%
CCOc1ccc(N2CC(c3nc4ccccc4n3Cc3cccc(C)c3)CC2=O)cc1 (stereo not drawn) -18.9%
O=[N+]([O-])c1cc(-c2nc(-c3ccccc3)no2)ccc1NCCc1ccccc1 -17.5%
Cc1ccc(OCC(=O)Nc2cc(-c3cccc(C)c3)nn2-c2ccccc2)cc1 -10.7%
CCc1nc2c(cnn2-c2ccc(Cl)cc2)c(=O)n1-c1ccc(OC)c(Cl)c1 -11.7%
Cc1ccc(CCNC(=O)c2ccc3c(c2)c(C)c(C)n3Cc2ccccc2)cc1 -0.742%
CCOc1ccccc1C(=O)Nc1cc2c(cc1N1CCOCC1)n(C)c(=O)n2C -16%
COc1ccc(Cl)cc1NC(=O)CSc1nc(-c2ccccc2)c2ccccc2n1 -11.3%
O=C(Nc1cccc(F)c1)[C@@H](c1ccccc1)N1Cc2ccccc2C1=O -7.03%
CCn1c(CC2C(=O)N(C)c3ccccc32)nc2ccccc2c1=O (stereo not drawn) -4.72%
CN(C)CCOC(c1ccccc1)c1ccccc1 -18.9%
